Here are results for 2 molecules from patent EP4129323A1 (ImmunOs Therapeutics AG, dated 2023).

As usually defined, the EC50 is the concentration giving half of the maximal effect. A high value points to a need for much substance.

Where a chain is given by its changes, count along the chain named. In names and notes the source's numbering stands.

This assay has as its target T1, LILRB2 (c-terminally biotinylated, BPS Bioscience #100335) (UniProt Q8N423 22-460, limits assumed, C-terminal biotin).
T1 construct: Commercial biotinylated protein, immobilised on streptavidin plates at 5 µg/ml; also called immunoglobulin-like receptor subfamily B member 2; LILRB2 receptor
T1 sequence (Q8N423 22-460 limits assumed): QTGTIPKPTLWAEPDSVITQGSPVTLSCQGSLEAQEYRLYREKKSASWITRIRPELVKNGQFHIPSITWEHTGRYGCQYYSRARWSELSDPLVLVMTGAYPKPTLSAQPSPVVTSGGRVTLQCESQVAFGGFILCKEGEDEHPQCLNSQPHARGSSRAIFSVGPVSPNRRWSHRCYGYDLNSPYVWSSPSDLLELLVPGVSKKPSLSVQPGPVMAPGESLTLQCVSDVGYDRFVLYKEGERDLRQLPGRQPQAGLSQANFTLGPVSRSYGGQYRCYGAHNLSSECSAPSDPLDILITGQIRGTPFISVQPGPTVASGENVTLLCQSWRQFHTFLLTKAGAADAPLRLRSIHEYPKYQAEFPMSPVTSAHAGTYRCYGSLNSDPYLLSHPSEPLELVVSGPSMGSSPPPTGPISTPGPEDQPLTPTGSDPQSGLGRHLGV
The experiment in a line: ELISA: fusion protein titrated on biotinylated LILRB2 immobilised on streptavidin plates, detected with APC anti-human IgG. (ELISA stands for enzyme-linked immunosorbent assay.)

B1: HLA-B57.OC (open conformer of the non-variant HLA-B57:01 extracellular domain - IgG4 Fc fusion protein, separated from β2m) (Fc fusion)
chain: GSHSMRYFYTAMSRPGRGEPRFIAVGYVDDTQFVRFDSDAASPRMAPRAPWIEQEGPEYWDGETRNMKASAQTYRENLRIALRYYNQSEAGSHIIQVMYGCDVGPDGRLLRGHDQSAYDGKDYIALNEDLSSWTAADTAAQITQRKWEAARVAEQLRAYLEGLCVEWLRRYLENGKETLQRADPPKTHVTHHPISDHEATLRCWALGFYPAEITLTWQRDGEDQTQDTELVETRPAGDRTFQKWAAVVVPSGEEQRYTCHVQHEGLPKPLTLRWEPSSQSGGGGSGGGGS[letters of human IgG4 Fc with S228P (EU numbers) left out]
notes: Open conformer: β2m was removed under acidic conditions (pH 3.0) and by size exclusion chromatography; also called HLA-B57-Fc; HLA-B57 open conformer
Regarding B1, the EC50 was determined as 21 nM.

B2: HLA-B57^(A46E/V97R).OC (open conformer of the variant HLA-B57 A46E/V97R extracellular domain - IgG4 Fc fusion protein, separated from β2m) (Fc fusion)
chain: B1 chain with A46E, V97R
notes: Open conformer: β2m was removed under acidic conditions; also called HLA-B57^(A46E/V97R)-Fc; variant HLA-B57 IgG4 Fc fusion protein
The molecule B2 had an EC50 of 8.3 nM. Compared with the last molecule, the EC50 is about 2.5-fold lower.
